We go through 44 sequences from the supplement of paper PMC11417369.

± gives the standard deviation of the averaged measurements. The list shows a part of the results.

In the assay the test system is PfAP2-G AP2 domain (GST-tagged). The assay can be described thus: gcPBM binding intensity (ln(normalized median fluorescence intensity)); higher = stronger DNA binding. In short, it runs like this:
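GST-tagged P. falciparum DNA-binding domains produced in E. coli were incubated for 1 h on an Agilent 4 × 180k array of primer-extended double-stranded 36-bp intergenic genomic probes with negative controls. Binding intensity is the highest Masliner-normalised natural-log median intensity across replicate spots of either probe orientation, with bound protein detected by Alexa488 anti-GST antibody at 488 nm.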
Turning to “TTTTTTTTTTTTTTTTTTTTTTTGTCTTATTTTTTT [GTGCAC_negctrl_site338]”, the “gcPBM binding intensity (ln)” value was 9.69 ± 0.44. Then “AAGATTTTCCTTGATAGTACACTTATGAAAATTTGT [XGTACX_site3047]”, with 11.2 ± 0.75; and “AATATCTTAGTGGATACACACATATAAATGTGGATT [CACACA_site485]”, with 10.2 ± 0.17. In the case of “AATATATTTAATCATACACACATTTATGTACCTATA [CACACA_site1718]” it was 11.2 ± 0.84; in that of “TCGCCCTACAATTTGTTTATATATTAAATAAAATTT [CACACA_negctrl_site883]”, 10.1 ± 0.17; in that of “TGAAATTCCATAAAATGTACATATTAGTTTAATTCA [XGTACX_site4031]”, 11 ± 0.6. Then “ATGTTCTTTAAAACCACACACCCCCCAACCCCCCTC [CACACA_site2373]”, with 11.7 ± 1; and “GTCTATTATTTTTGAAGTACAAAAATTTTAGTTAAA [XGTACX_site4708]”, with 11.3 ± 0.9; and CATCATCTTTTAAAGGTGCATAATAATATTGTTAAT, with 10.1 ± 0.17.

With “GGTATACACAGACATGCATGTAATTATATATAGGGA [TGCATGCA_site83]”, the “gcPBM binding intensity (ln)” value is 9.88 ± 0.16. In the case of “AAAAATAAATATATATGTACACATATGTATACAATA [XGTACX_site4692]” it was 11.6 ± 0.97; in that of “GAAATAAATATAATATATATATATATATATATATGT [TGCATGCA_negctrl_site216]”, 10.4 ± 0.42; in that of TTACAACATGAAAATGTGCACATATATATATATATA, 10.3 ± 0.33.

For “ATATTTATAAATTGCACACAAATAATAACATTCTAT [CACACA_site2357]”, the “gcPBM binding intensity (ln)” value was 9.945 ± 0.007. Then “TATTATTATTATGGTAGTACATGTAGGTTATTAAAA [XGTACX_site5742]”, with 11.6 ± 1.2; and “AATTGGGAAGGACATGCATGAGAAATTAATATTGCA [TGCATGCA_site424]”, with 10.6 ± 0.61; and “ATATTTTGTTTTTGTTCTTTTTTTTTCTTTTTTTTT [CACACA_negctrl_site1342]”, with 9.81 ± 0.057.

Turning to “AACATACACATATACACACACACATATATACCTATA [CACACA_site6643]”, the “gcPBM binding intensity (ln)” value worked out at 10.2 ± 0.17.

As for “AAGAAAAAAAAAATTACACACTGCGGACATACACAA [CACACA_site4838]”, the “gcPBM binding intensity (ln)” value is 11.1 ± 0.64.

On to “TCAATTTTACTTGTTTGTACATAAAATAATAAGGTT [XGTACX_site3732]”, for which the “gcPBM binding intensity (ln)” value worked out at 11 ± 0.57.

“ATATCTACTATACAACTGAGTGTAGAAAAATTAAAC [CACACA_negctrl_site1211]”: the “gcPBM binding intensity (ln)” value turned out to be 10.13 ± 0.071. In the case of “ACTTTGCTCTACAATGCATGCTCATTTAACAAGGCA [TGCATGCA_site676]” it was 9.945 ± 0.021; in that of “TATATTAAATGAAACAAACACACATAGCCTTTAAAT [CACACA_site1559]”, 9.945 ± 0.049. Take “AAAAAAAAAAAAAAATGTACATATATATAAATATAT [XGTACX_site6768]”: the “gcPBM binding intensity (ln)” value was determined as 11.1 ± 0.72.

As for “CTATTTTATATGTGCACACATATACTCAGACAAATA [CACACA_site4761]”, the “gcPBM binding intensity (ln)” value is 10.6 ± 0.45. Regarding “ACCTATATACTAAATGCACACTTATATATTTATATA [CACACA_site5371]”, the “gcPBM binding intensity (ln)” value is 10.11 ± 0.049. On to “ATATATATATATATATGTACATATTTTTATTTATAC [XGTACX_site2858]”, for which the “gcPBM binding intensity (ln)” value amounted to 11.3 ± 0.74.

In the case of “TATGTAATGTTTACAACACACAAATTATAAATACAA [CACACA_site1771]”, the “gcPBM binding intensity (ln)” value is 9.86 ± 0.13.

“TATTTATATGTATATACATGCACATATATATGAAAC [TGCATGCA_site1005]”: the “gcPBM binding intensity (ln)” value stood at 10.1 ± 0.18.

On to “CATATTACATTAAATTGTACATATATATATATATAT [XGTACX_site3295]”, for which the “gcPBM binding intensity (ln)” value came out at 10.9 ± 0.55. In the case of “CGGATGAATATATATGCACACATCTTTTGTAAAAAT [CACACA_site3190]”, the “gcPBM binding intensity (ln)” value came to 9.985 ± 0.078. In the case of “TAATTCGCATTTTATACACACATTCGAACCTTTTTT [CACACA_site7549]” it was 9.99 ± 0.17. Then “AAATTAATACATTATTGTACTTTTCATGTGCAGAAA [XGTACX_site8284]”, with 11.4 ± 0.91; and “TCAATAAATGAATATGCATGCACGCTCTTTAGAGAT [TGCATGCA_site553]”, with 10 ± 0.028.

Consider “GAGAAAAAAAAAAAAAAACACACGGTACATTCAAAG [CACACA_site1767]”, for which the “gcPBM binding intensity (ln)” value came to 10.35 ± 0.049.

Regarding “TGTATAAATATATGCACACATATATATATTTATATA [CACACA_site3473]”, the “gcPBM binding intensity (ln)” value worked out at 9.81 ± 0.14. In the case of “TAATAATCAAGTTAACGTACAAAATCATCTATAGAA [XGTACX_site5921]” it was 10.9 ± 0.53. For “GTAGCCTTTCTTTATAAAGGCAAACAAACAAAAAAT [CACACA_negctrl_site1491]”, the “gcPBM binding intensity (ln)” value was determined as 10.2 ± 0.34. In the case of “ATATGAGAGAATAAAACACACAAAAAAAAAAAAAAA [CACACA_site2865]” it was 9.69 ± 0.33; in that of “AAAAAAAAAAGTTCTACACACACAAAAAAATATTTT [CACACA_site8725]”, 10.02 ± 0.042; in that of “AAAAATTAAAAGAAAATACACACCTGTGGGTGCTTA [CACACA_site1988]”, 9.54 ± 0.26. On to TTATATAGGCAGATGGTGCATCTATTTATAAGCAAC, for which the “gcPBM binding intensity (ln)” value came out at 9.95 ± 0.28. In the case of “TGTATGTATTTTCAATGTACATAAAAAAAAAAAAAA [XGTACX_site4397]” it was 10.9 ± 0.92; in that of TATTTTTTTTGTTAGGTGCATTTACATTTATTTTTA, 10.1 ± 0.22.
